Source: paper PMC4336329 (PLoS ONE, 2015)
The campaign covered roughly 310,000 compounds. About 14,000 (4.5%) showed an effect of 50% or more. The effect is printed as a negative number. This is one part of the list.

The molecules below were run against human ether-à-go-go-related gene (hERG) potassium channel (human, UniProt Q12809) (assay: primary screen, population patch clamp on CHO cells stably expressing hERG).
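Note: peak tail current of the secondary pulse compared with the same well before compound.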

Sequence of human ether-à-go-go-related gene (hERG) potassium channel (Q12809 whole entry, looked up): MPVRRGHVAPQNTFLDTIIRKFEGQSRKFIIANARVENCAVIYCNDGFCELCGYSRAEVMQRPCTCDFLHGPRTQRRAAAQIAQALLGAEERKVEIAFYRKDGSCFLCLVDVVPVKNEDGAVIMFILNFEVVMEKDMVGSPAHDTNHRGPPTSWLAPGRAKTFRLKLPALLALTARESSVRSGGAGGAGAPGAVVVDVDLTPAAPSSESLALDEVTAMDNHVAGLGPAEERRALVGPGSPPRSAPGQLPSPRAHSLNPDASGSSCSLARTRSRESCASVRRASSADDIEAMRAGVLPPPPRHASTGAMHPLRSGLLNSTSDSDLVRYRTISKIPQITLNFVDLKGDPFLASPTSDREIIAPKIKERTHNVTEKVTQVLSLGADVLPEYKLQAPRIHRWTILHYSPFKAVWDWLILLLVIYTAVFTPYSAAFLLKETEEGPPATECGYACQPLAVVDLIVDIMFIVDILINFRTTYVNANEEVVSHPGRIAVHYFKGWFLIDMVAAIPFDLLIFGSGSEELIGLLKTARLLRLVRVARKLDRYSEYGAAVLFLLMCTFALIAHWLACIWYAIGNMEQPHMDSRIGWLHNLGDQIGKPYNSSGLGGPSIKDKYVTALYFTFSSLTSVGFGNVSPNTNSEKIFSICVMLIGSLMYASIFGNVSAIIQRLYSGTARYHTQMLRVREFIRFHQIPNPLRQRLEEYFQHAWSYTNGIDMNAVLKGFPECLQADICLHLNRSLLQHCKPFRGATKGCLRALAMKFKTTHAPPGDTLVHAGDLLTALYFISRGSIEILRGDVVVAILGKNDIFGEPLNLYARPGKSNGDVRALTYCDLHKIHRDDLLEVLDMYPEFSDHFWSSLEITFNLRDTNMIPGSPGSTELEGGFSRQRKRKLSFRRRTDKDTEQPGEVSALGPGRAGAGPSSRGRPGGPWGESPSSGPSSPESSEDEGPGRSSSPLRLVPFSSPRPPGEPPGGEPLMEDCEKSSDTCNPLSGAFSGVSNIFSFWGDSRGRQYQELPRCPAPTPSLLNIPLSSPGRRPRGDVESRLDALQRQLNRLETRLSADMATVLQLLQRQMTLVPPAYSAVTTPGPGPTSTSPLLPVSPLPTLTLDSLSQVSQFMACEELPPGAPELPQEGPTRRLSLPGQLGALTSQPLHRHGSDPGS

SMILES	hERG current change (%, negative = inhibition) at 10uM
CS(=O)(=O)N1CCN(c2ncnc3c2cnn3-c2ccccc2)CC1	3.7%
Nc1ccc(C(=O)OCc2nc3ccccc3[nH]2)cc1	14%
O=C(O)CC/C(=N\NC(=O)CNC(=O)c1ccc(F)cc1)c1ccccc1	9.42%
Cc1nn(-c2ccccc2)c(C)c1NC(=O)COC(=O)[C@@H](NC(=O)c1ccccc1)C(C)C	-2.46%
CCOc1ccc(S(=O)(=O)N2CCCCC2)cc1NS(=O)(=O)c1cccs1	4.67%
O=C(O)c1ccccc1C(=O)c1ccc(Oc2ccccc2)cc1	8.12%
CCOc1ccc2nc(SCC(=O)N(C)C3CCS(=O)(=O)C3)[nH]c2c1 (centres unmarked)	5.53%
COc1ccc(C2C(C(=O)c3ccco3)=C(O)C(=O)N2c2nnc(C)s2)cc1OC (centres unmarked)	8.49%
COc1ccc(OCC(=O)NC(CC(=O)O)c2ccc(OC)c(OC)c2)cc1 (centres unmarked)	27.1%
COc1ccc(C(=O)C2CCCN(C(=O)c3c4c(nn3C)CCCC4)C2)cc1F (centres unmarked)	-9.37%
Cc1ccc(S(=O)(=O)NC(=NC2CCCCC2)c2ccc(F)cc2)cc1	-4.09%
COC(c1ccccc1)c1nnc(CCC(=O)N(C)CCc2ccccc2)o1 (centres unmarked)	-13.1%
C[N+](C)(C)CCNC(=O)c1c(O)c2c([nH]c1=O)CCCC2.[I-]	16.3%
CC(=O)Nc1sc2c(c1C(c1ccccc1)N1CCOCC1)CCCC2 (centres unmarked)	10.7%
O=C(COC(=O)c1cnccn1)c1ccc(Br)cc1	0.614%
COC(=O)C1=C(c2ccc3ccccc3c2)C[C@@H]2CC[C@H]1N2C(=O)N1CCC(C)CC1	3.99%
CC(=O)c1cn(-c2ccc(Cl)cc2)c(=O)n(Cc2ccc(Br)cc2)c1=O	-11.9%
O=S(=O)(NCc1cccnc1)c1cccs1	10.9%
CC(C)c1cc(=O)n2[nH]c(SCc3ccccc3)nc2n1	5.04%

SMILES	hERG current change (%, negative = inhibition) at 10uM
Cc1ccc(-n2nc(C)c3c(C)c(CCC(=O)O)c(C)nc32)cc1C	30.7%
O=C(NC(n1ccc(=O)[nH]c1=O)C(Cl)(Cl)Cl)C12CC3CC(CC(C3)C1)C2 (centres unmarked)	-14.8%
CCc1cccc(NC(=O)C2CC2c2ccccc2)c1 (centres unmarked)	14.5%
CCCCCC(C)n1[nH]c(=O)cc1N (centres unmarked)	13%
CN(Cc1ccccc1)C(=O)c1[nH]cnc1C(=O)Nc1nccs1	-4%
Cc1ccc(C)c(N2CCN(C(=O)Nc3ccc4c(c3)N(C)C(=O)CS4)CC2)c1	-21.8%
CCOC(=O)CC(NS(=O)(=O)c1ccc2[nH]cc(C(=O)O)c(=O)c2c1)c1ccc(OCC)c(OC)c1 (centres unmarked)	-1.02%
Cc1ccc(Sc2ccc(C(=O)N(C)C)cc2[N+](=O)[O-])cc1	-22.1%
Cc1cccc(OCC(O)CN2CCc3ccccc3C2)c1.Cl (centres unmarked)	-38%
CC(C)(C)OC(=O)CNC(=O)c1nc[nH]c1C(=O)NCc1ccccc1	-22.8%
C=CCn1c(SCc2c(C)noc2C)nnc1C1COc2ccccc2O1 (centres unmarked)	-9.87%
Cn1c(-c2sc3cc(C(F)(F)F)cnc3c2-c2cccs2)n[nH]c1=S	18.1%
COc1ccc2[nH]c(C)c(CCNCc3cn(C)c4ccccc34)c2c1.O=C(O)C(=O)O	-27.8%
CC(C)CCNC(=O)c1ccc2c(c1)N(C)C(=O)c1ccccc1S2	-44.6%
CCCCN(C)CCCNC(=O)CN1N=C(c2ccc(Cl)cc2)CCC1=O	-56.7%
O=C(COc1ncnc2cc([N+](=O)[O-])ccc12)NCCc1ccc(Cl)cc1	-21.6%
O=C(NCC1CCCO1)c1ccc(CSCc2cccc(F)c2)o1 (centres unmarked)	-7.59%
Cc1ccc(S(=O)(=O)n2ccc3c2CCCC3=O)cc1	12.1%
Cc1cc(C)cc(N=Cc2c(O)c3ccccc3oc2=O)c1	20.2%

SMILES	hERG current change (%, negative = inhibition) at 10uM
Cc1c(C(N)=O)sc(N)c1C(=O)OC(C)C	9.72%
CCNC(=S)N(CCc1c(C)[nH]c2ccc(C)cc12)Cc1ccco1	-3.29%
O=C(O)c1ccc(N2C(=O)CC(N3C(=O)/C(=C/c4ccc(Cl)cc4)SC3=S)C2=O)cc1 (centres unmarked)	9.83%
Cc1ccc(C(=O)NC(C)c2ccccc2)o1 (centres unmarked)	-5.64%
O=C(COC(=O)c1ccc[nH]c1=O)NCCc1ccc(F)cc1	-4.88%
COc1ccc(C(=O)NC2CCN(C(=S)NCc3ccco3)CC2)cc1	-29.6%
Nc1c(C(=O)Nc2ccc(Cl)c(C(=O)O)c2)sc2nc3c(cc12)CCCC3	-3.17%
COc1cccc(C2(c3cccc(OC)c3)CC2C(=O)Nc2ccccc2Cl)c1 (centres unmarked)	14%
C=CCc1cccc(CNc2nc3ccccc3n2C(C)C)c1O	-15.8%
CC(=O)c1cccc(OCc2cc(C(=O)N3CCC(N4CCCCC4)CC3)no2)c1	-20.7%
COc1ccccc1NC(=O)c1cnc(Nc2ccccc2OC)c2ccccc12	2.95%
O=C(NCCc1ccccc1)c1coc(=O)c(Br)c1	5.91%
Cc1nc2ccccc2n1S(=O)(=O)c1cc(C(=O)O)ccc1Cl	17%
CC1CCN(C(=O)C2CCN(CC(C)c3ccccc3)CC2)CC1.O=C(O)C(=O)O (centres unmarked)	-13.5%
CCN(CC(=O)NC1CCS(=O)(=O)C1)c1ccc(S(C)(=O)=O)cc1[N+](=O)[O-] (centres unmarked)	-7.45%
CCCCn1nnnc1NCc1ccc(OC)c(OC)c1	18.3%
CCC1CCC(NC(=O)Nc2cccc(OC)c2)CC1 (centres unmarked)	10.1%
C[C@H](NC(=O)c1[nH]cnc1C(=O)Nc1ccccc1)C(=O)OC(C)(C)C	4.12%
